Assay results as given in the RNAGym collection of RNA variant scans (doi:10.1073/pnas.2313332121).
Variants at the background level are over-represented here.

B1: TPR 5TU (parent)
chain: GGAUCUUCUCGAUCUAACAAAAAAGACAAAUCUGCCACAAAGCUUGAGAGCAUCUUCGGAUGCAGAGGCGGCAGCCUUCGGUGGCGCGAUAGCGCCAACGUUCUCAACUAUGACACGCAAAACGCGUGCUCCGUUGAAUGGAGUUUAUCAUG

Variants of: B1
Experiment: polymerase ribozyme fitness, log enrichment relative to wild type (log ratio); higher = more active; in vitro selection for triplet polymerase activity
Procedure, shortened: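 Each subunit of a heterodimeric triplet polymerase ribozyme was mutagenized into a library by PCR, transcribed, and subjected to one round of in vitro selection, run in triplicate. Libraries were annealed with a biotinylated primer, the partner subunit and triplets, incubated frozen at −7 °C, and extended constructs were gel-excised, captured on streptavidin beads and recovered by RT-PCR. Input and output libraries were sequenced on Illumina, keeping genotypes with ≥10 input reads and ≥1 read per output. Fitness is log base 2 of genotype enrichment divided by wild-type enrichment, from inverse-variance-weighted replicate averages.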

Variant | polymerase ribozyme fitness (log ratio)
G67A A98U G133U G136U | ≤ -4.2
C72A C105U A110G | ≤ -4.2
A66G C76G U90G C93U C96G G117U | ≤ -4.2
C63U A119U U144C | -0.319
G67A G74A | ≤ -4.2
C69A C76A U109C | ≤ -4.2
G67U C76U G80C C93U C103G | ≤ -4.2
A66C U90G | ≤ -4.2
A64U C95U C114U | ≤ -4.2
G71C G92U U151A | ≤ -4.2
A66U C79G G88C U134G | ≤ -4.2
G65C G68U C93A C125A | ≤ -4.2
G62C C123A | -1.69
G68A C85U A97U A107U G128A C132U | ≤ -4.2
G65U A66C U77A A147C | ≤ -4.2
A66G G81A A89U U144A | ≤ -4.2
G62A A121G | -0.384
C69G A73C U77C G84A C118U C131A U139G | ≤ -4.2
G68A U77G A113C | ≤ -4.2
C69U A107C A119G G124A | ≤ -4.2
A64C G70C A73G G86A C99A | ≤ -4.2
G67A G68C | ≤ -4.2
G70A A121G C125G | ≤ -4.2
G70C C103G A120G U127C U134C | ≤ -4.2

Variant | polymerase ribozyme fitness (log ratio)
G68C U78C G84C U146A | ≤ -4.2
C69A A73G G92C | -1.54
A66U C96A G100U A107U | ≤ -4.2
A66C C105G | ≤ -4.2
G70A G124U U135C A138U | ≤ -4.2
C69A C118U | -1.62
U61C G94A G141A C149A | ≤ -4.2
G62A C87G U90A C96U C99U U148G | ≤ -4.2
A66U G68C C105A | ≤ -4.2
G68C G92U G136U U144A | ≤ -4.2
A64C C85G | ≤ -4.2
A64C C85U | ≤ -4.2
A64C C87A G133C U139A A142U U146C U151G | ≤ -4.2
G68U C85U U144A | -4.15
G68U C76A C105U U135A | ≤ -4.2
A64C A73G | ≤ -4.2
G71U G74C A120C | ≤ -4.2
G67A C93G A98G U145A | ≤ -4.2
A64G C69U C99A G140C | ≤ -4.2
C72A G88A A121U C132U A142U | ≤ -4.2
U61G U101C | -2.61
G71A G84U A138C G141C | ≤ -4.2
G70A A97U | -3.59
C72A C114A | ≤ -4.2

Variant | polymerase ribozyme fitness (log ratio)
C72A C85A | -3.85
G62C G71U G84U A150U G152C | ≤ -4.2
A64G C79G A91U G124U G133U | ≤ -4.2
G68A U77A G81A U111A G126U | ≤ -4.2
A66G C79G U102G A138U | ≤ -4.2
A66C U82C A91U C99A A115C | ≤ -4.2
G70U A138G | ≤ -4.2
U61G C85A G141A | -1.58
C63A A107C U111C A122G | ≤ -4.2
A66U C69G U78G G81U C85U | ≤ -4.2
C63A A120U G124C | -2.49
G67U C85G | ≤ -4.2
A66U C96A U111A A122G A138C | ≤ -4.2
G65A A110U | ≤ -4.2
C63U C99G A120G C125A G133A | ≤ -4.2
G65A C93U | -1.96
G67C C69G A91U | ≤ -4.2
A64C A73G G86C C96G A97U U102G U135G U145G | ≤ -4.2
G68C C114U U146C | ≤ -4.2
A64C A115U A142U G143U | ≤ -4.2
G70C C87A A115C | ≤ -4.2
C69G C72U | -2.71
C63G A73G | -0.51
G71A G74U G152U | ≤ -4.2

Variant | polymerase ribozyme fitness (log ratio)
C63U C85U C95A | -0.621
G68U C75A G81U G83A C95U C96U C116U | -1.31
C69U G86C | ≤ -4.2
A64U G86C G124A | ≤ -4.2
G71A C85U C96A A107G C118A | ≤ -4.2
G67C C85U G136A G140U | ≤ -4.2
G62A G84A C149G | ≤ -4.2
G65C A66C G81A C85G A121G | -4.16
G62U G80C C87U A89U G126U | ≤ -4.2
C69G U77C C87U G140U | ≤ -4.2
U61G U90A G126U | ≤ -4.2
C63U C79U C103U U111G C125A | ≤ -4.2
G71U G84U U101C G117U C123U | -4.15
C69A U82G C85U C114G | ≤ -4.2
U61C G83C A119C | ≤ -4.2
G67U C93U | -3.74
G67A C85A A122G | ≤ -4.2
C72G G86C | ≤ -4.2
A66G C85G A119C A122U | ≤ -4.2
C63G G83A A98C U104A | -0.841
G68A A122G G133C | ≤ -4.2
C69A G83A A121C | -1.84
G62A C96G G100C | ≤ -4.2
G62C C63U C79A C85U A98U C99U C131A U135C U144A | ≤ -4.2

Variant | polymerase ribozyme fitness (log ratio)
C72G C93A A115C | ≤ -4.2
G68A C93G C129A U130A | ≤ -4.2
C63U C125U G133U | -3.67
G65C U77A G94U C108G G128U U146A | ≤ -4.2
A64U C69U | ≤ -4.2
A66C G92C | ≤ -4.2
C63U C69U A73U C93A A107C C123A A138U | ≤ -4.2
G62A C85A U151C | ≤ -4.2
G70A G100C | ≤ -4.2
G71C C87U C116U G136C C149U | ≤ -4.2
C63U C75U U82A | 0.455
C72A G143A | ≤ -4.2
G62U C95U U134G U135G | ≤ -4.2
G70C G80C A142G | ≤ -4.2
C69U A106C | -2.21
G65A A73U U90G C96G A119C A122C | ≤ -4.2
C63U U82G A98G C108G U144A | ≤ -4.2
G62U C132A | ≤ -4.2
A64C A89U A150G | ≤ -4.2
G68A C93A C103U A115U G117A | ≤ -4.2
C63A A147C | 0.331
A66C G92A C105A C116A G126C G141A | ≤ -4.2
G62A A64U C69U C76U G84A C105G C116G | ≤ -4.2
U61G G68A U78G U127A | ≤ -4.2

Variant | polymerase ribozyme fitness (log ratio)
G71A G80U C85U | ≤ -4.2
G67A G88U | ≤ -4.2
C63U C69A C85U A97C C118G G126C | -3.97
G62A G68U U77C A115C A122U | ≤ -4.2
G65C G71U | ≤ -4.2
G62A G83C A107U | ≤ -4.2
G62A G84A C87U C131G | ≤ -4.2
G71A C85U G133A | ≤ -4.2
C63U G67U G88A A89U C95A | ≤ -4.2
G68A G92C | -4.16
G68C U90C C93G C103A A119C G141U U148G | ≤ -4.2
G70A G83C A91G C95U | ≤ -4.2
U61C A98U C103G A115G C131U | ≤ -4.2
G67C U77C G86U C129U A147U | ≤ -4.2
C63A G92C | -1.03
A66C C87A U90C G100U | ≤ -4.2
G70A C75G C93A | ≤ -4.2
G71C A119G | -3.01
U61G G86A | -2.45
C63U G92A C108A G143A | ≤ -4.2
G71C C76A G88A G94A A113G A119U C129U | ≤ -4.2
G68C A98U C108G A113G | ≤ -4.2
A66G C85G U101G C114U A120C | ≤ -4.2
U61C U148C | ≤ -4.2

Variant | polymerase ribozyme fitness (log ratio)
C69A G71U C85G C103U G117C | -3.28
G65U C75U C76G G83U | ≤ -4.2
G68A C123U | -3.89
G65U G71C A73U A122U G126A A137C U146A | ≤ -4.2
G62C A106U C125U | -3.86
G71A U77C U151C | ≤ -4.2
G71U G141U | -3.55
G67U U151G | ≤ -4.2
C63U G88U | ≤ -4.2
A64C A119G C149A | ≤ -4.2
A64C G88U A150C | ≤ -4.2
C69U C75U G92A U102G U111G C123A U148A | ≤ -4.2
C72G C76U U82G G94A C105G A137U | ≤ -4.2
A64C C79U G112C | ≤ -4.2
U61G C69G U82A C95A A122U U148C | ≤ -4.2
G68A G74C G88A | ≤ -4.2
A64G A97U | ≤ -4.2
C63U U139G | 0.261
G65C A66C C93U C99G | ≤ -4.2
A64C A73U G84A U102G C116A | ≤ -4.2
G65C C85G | ≤ -4.2
G70A G141A | -3.46
G68C G80U A89U C95U U104G U134A A142G | ≤ -4.2
